Laboratory results as given in PMC12032945, “Estrogenic activity of E2-conjugated GLP-1 is mediated by intracellular endolysosomal acidification and estrone metabolism” (Molecular Metabolism, 2025).

System: ERα, ERβ, ERα/ERβ
Conditions: saturating doses (1 μM); 24 h

In the case of `C[C@]12CC[C@@H]3c4ccc(O)cc4CC[C@H]3[C@@H]1CC[C@@H]2O` [E2, 17β-estradiol], the “bias for ER subtype (ERα, ERβ, both)” value is reported as “do not show bias in engaging specific receptor subtypes at saturating doses”.
